# Reference: the supplement of paper PMC8728848
# The other results are listed elsewhere or left out.
# Legend:
# Experiment in all cases: glycan array binding signal (z-score within array); higher = stronger binding
# Conditions in all cases: glycan notation: IUPAC condensed, linker removed; mutation: I144G
# [1] = target: GlcNAc(b1-3)Gal(b1-3)GalNAc
# In short: (§1)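 The binding signal is a Z-score computed within each array and averaged over linkers. Arrays of the same protein sequence at different concentrations or buffers were also averaged together. Data originate from 3228 arrays in the Consortium for Functional Glycomics database, kept only where the protein sequence was available.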
# GlcNAc(b1-3)Gal(b1-4)Glc = target: GlcNAc(b1-3)Gal(b1-4)Glc
# In short: as §1
# [2] = target: GlcNAc(b1-3)Gal(b1-4)GlcNAc
# In short: as §1
# [3] = target: GlcNAc(b1-3)Gal(b1-4)GlcNAc(b1-2)Man(a1-3)[GlcNAc(b1-3)Gal(b1-4)GlcNAc(b1-2)Man(a1-6)]Man(b1-4)GlcNAc(b1-4)GlcNAc
# In short: as §1
# [4] = target: GlcNAc(b1-3)Gal(b1-4)GlcNAc(b1-2)Man(a1-3)[GlcNAc(b1-3)Gal(b1-4)GlcNAc(b1-2)Man(a1-6)]Man(b1-4)GlcNAc(b1-4)[Fuc(a1-6)]GlcNAc
# In short: as §1
# [5] = target: GlcNAc(b1-3)Gal(b1-4)GlcNAc(b1-2)[GlcNAc(b1-3)Gal(b1-4)GlcNAc(b1-6)]Man(a1-6)[GlcNAc(b1-3)Gal(b1-4)GlcNAc(b1-2)Man(a1-3)]Man(b1-4)GlcNAc(b1-4)GlcNAc
# In short: as §1
# [6] = target: GlcNAc(b1-3)Gal(b1-4)GlcNAc(b1-3)Gal(b1-4)GlcNAc
# In short: as §1
# [7] = target: GlcNAc(b1-3)Gal(b1-4)GlcNAc(b1-3)Gal(b1-4)GlcNAc(b1-2)Man(a1-3)[GlcNAc(b1-3)Gal(b1-4)GlcNAc(b1-3)Gal(b1-4)GlcNAc(b1-2)Man(a1-6)]Man(b1-4)GlcNAc(b1-4)GlcNAc
# In short: as §1
# [8] = target: GlcNAc(b1-3)Gal(b1-4)GlcNAc(b1-3)Gal(b1-4)GlcNAc(b1-2)Man(a1-3)[GlcNAc(b1-3)Gal(b1-4)GlcNAc(b1-3)Gal(b1-4)GlcNAc(b1-2)Man(a1-6)]Man(b1-4)GlcNAc(b1-4)[Fuc(a1-6)]GlcNAc
# In short: as §1
# [9] = target: GlcNAc(b1-3)Gal(b1-4)GlcNAc(b1-3)Gal(b1-4)GlcNAc(b1-2)[GlcNAc(b1-3)Gal(b1-4)GlcNAc(b1-3)Gal(b1-4)GlcNAc(b1-6)]Man(a1-6)[GlcNAc(b1-3)Gal(b1-4)GlcNAc(b1-3)Gal(b1-4)GlcNAc(b1-2)Man(a1-3)]Man(b1-4)GlcNAc(b1-4)[Fuc(a1-6)]GlcNAc
# In short: as §1
# [10] = target: GlcNAc(b1-3)Gal(b1-4)GlcNAc(b1-3)Gal(b1-4)GlcNAc(b1-3)Gal(b1-4)GlcNAc(b1-2)Man(a1-3)[GlcNAc(b1-3)Gal(b1-4)GlcNAc(b1-3)Gal(b1-4)GlcNAc(b1-3)Gal(b1-4)GlcNAc(b1-2)Man(a1-6)]Man(b1-4)GlcNAc(b1-4)GlcNAc
# In short: as §1
# [11] = target: GlcNAc(b1-3)Gal(b1-4)GlcNAc(b1-3)Gal(b1-4)GlcNAc(b1-3)Gal(b1-4)GlcNAc(b1-2)Man(a1-3)[GlcNAc(b1-3)Gal(b1-4)GlcNAc(b1-3)Gal(b1-4)GlcNAc(b1-3)Gal(b1-4)GlcNAc(b1-2)Man(a1-6)]Man(b1-4)GlcNAc(b1-4)[Fuc(a1-6)]GlcNAc
# In short: as §1
# [12] = target: GlcNAc(b1-3)Gal(b1-4)GlcNAc(b1-3)Gal(b1-4)GlcNAc(b1-3)Gal(b1-4)GlcNAc(b1-2)[GlcNAc(b1-3)Gal(b1-4)GlcNAc(b1-3)Gal(b1-4)GlcNAc(b1-3)Gal(b1-4)GlcNAc(b1-6)]Man(a1-6)[GlcNAc(b1-3)Gal(b1-4)GlcNAc(b1-3)Gal(b1-4)GlcNAc(b1-3)Gal(b1-4)GlcNAc(b1-2)Man(a1-3)]Man(b1-4)GlcNAc(b1-4)[Fuc(a1-6)]GlcNAc
# In short: as §1
# [13] = target: GlcNAc(b1-3)Gal(b1-4)GlcNAc(b1-3)Gal(b1-4)GlcNAc(b1-3)Gal(b1-4)GlcNAc(b1-3)Gal(b1-4)GlcNAc(b1-2)Man(a1-3)[GlcNAc(b1-3)Gal(b1-4)GlcNAc(b1-3)Gal(b1-4)GlcNAc(b1-3)Gal(b1-4)GlcNAc(b1-3)Gal(b1-4)GlcNAc(b1-2)Man(a1-6)]Man(b1-4)GlcNAc(b1-4)GlcNAc
# In short: as §1
# [14] = target: GlcNAc(b1-3)Gal(b1-4)GlcNAc(b1-3)Gal(b1-4)GlcNAc(b1-3)Gal(b1-4)GlcNAc(b1-3)Gal(b1-4)GlcNAc(b1-2)Man(a1-3)[GlcNAc(b1-3)Gal(b1-4)GlcNAc(b1-3)Gal(b1-4)GlcNAc(b1-3)Gal(b1-4)GlcNAc(b1-3)Gal(b1-4)GlcNAc(b1-2)Man(a1-6)]Man(b1-4)GlcNAc(b1-4)[Fuc(a1-6)]GlcNAc
# In short: as §1
# [15] = target: GlcNAc(b1-3)Gal(b1-4)GlcNAc(b1-3)Gal(b1-4)GlcNAc(b1-3)Gal(b1-4)GlcNAc(b1-3)Gal(b1-4)GlcNAc(b1-2)[GlcNAc(b1-3)Gal(b1-4)GlcNAc(b1-3)Gal(b1-4)GlcNAc(b1-3)Gal(b1-4)GlcNAc(b1-3)Gal(b1-4)GlcNAc(b1-6)]Man(a1-6)[GlcNAc(b1-3)Gal(b1-4)GlcNAc(b1-3)Gal(b1-4)GlcNAc(b1-3)Gal(b1-4)GlcNAc(b1-3)Gal(b1-4)GlcNAc(b1-2)Man(a1-3)]Man(b1-4)GlcNAc(b1-4)[Fuc(a1-6)]GlcNAc
# In short: as §1
# [16] = target: GlcNAc(b1-3)Gal(b1-4)GlcNAc(b1-3)Gal(b1-4)GlcNAc(b1-3)GalNAc
# In short: as §1
# [17] = target: GlcNAc(b1-3)Gal(b1-4)GlcNAc(b1-3)GalNAc
# In short: as §1
# [18] = target: GlcNAc(b1-3)Gal(b1-4)GlcNAc(b1-3)[GlcNAc(b1-3)Gal(b1-4)GlcNAc(b1-3)]GalNAc
# In short: as §1
# [19] = target: GlcNAc(b1-3)Gal(b1-4)GlcNAc(b1-6)[Gal(b1-3)]GalNAc
# In short: as §1
# [20] = target: GlcNAc(b1-3)Gal(b1-4)GlcNAc(b1-6)[GlcNAc(b1-3)Gal(b1-3)]GalNAc
# In short: as §1
# [21] = target: GlcNAc(b1-3)Gal(b1-4)GlcNAc(b1-6)[GlcNAc(b1-3)]Gal(b1-4)GlcNAc
# In short: as §1
# GlcNAc(b1-3)GalNAc = target: GlcNAc(b1-3)GalNAc
# In short: as §1
# GlcNAc(b1-3)Man = target: GlcNAc(b1-3)Man
# In short: as §1
# [22] = target: GlcNAc(b1-3)[GlcNAc(b1-4)][GlcNAc(b1-6)]GlcNAc
# In short: as §1
# [23] = target: GlcNAc(b1-3)[GlcNAc(b1-6)]Gal(b1-4)GlcNAc
# In short: as §1
# [24] = target: GlcNAc(b1-3)[GlcNAc(b1-6)]GalNAc
# In short: as §1
# [25] = target: GlcNAc(b1-4)Gal(b1-4)GlcNAc
# In short: as §1
# GlcNAc(b1-4)GlcNAc = target: GlcNAc(b1-4)GlcNAc
# In short: as §1
# [26] = target: GlcNAc(b1-4)GlcNAc(b1-4)GlcNAc
# In short: as §1
# [27] = target: GlcNAc(b1-4)GlcNAc(b1-4)GlcNAc(b1-4)GlcNAc(b1-4)GlcNAc
# In short: as §1
# [28] = target: GlcNAc(b1-4)GlcNAc(b1-4)GlcNAc(b1-4)GlcNAc(b1-4)GlcNAc(b1-4)GlcNAc
# In short: as §1
# [29] = target: GlcNAc(b1-4)[GlcNAc(b1-6)]GalNAc
# In short: as §1
# [30] = target: GlcNAc(b1-6)Gal(b1-4)GlcNAc
# In short: as §1
# GlcNAc(b1-6)GalNAc = target: GlcNAc(b1-6)GalNAc
# In short: as §1
# [31] = target: GlcNAc6S(b1-3)Gal(b1-4)GlcNAc
# In short: as §1
# Kdn(a2-3)Gal(b1-3)GalNAc = target: Kdn(a2-3)Gal(b1-3)GalNAc
# In short: as §1
# Kdn(a2-3)Gal(b1-3)GlcNAc = target: Kdn(a2-3)Gal(b1-3)GlcNAc
# In short: as §1
# Kdn(a2-3)Gal(b1-4)Glc = target: Kdn(a2-3)Gal(b1-4)Glc
# In short: as §1
# Kdn(a2-3)Gal(b1-4)GlcNAc = target: Kdn(a2-3)Gal(b1-4)GlcNAc
# In short: as §1
# [32] = target: Kdn(a2-3)Gal(b1-4)[Fuc(a1-3)]GlcNAc
# In short: as §1
# Kdn(a2-6)Gal(b1-4)GlcNAc = target: Kdn(a2-6)Gal(b1-4)GlcNAc
# In short: as §1
# [33] = target: Man(a1-2)Man(a1-2)Man(a1-3)Man
# In short: as §1
# [34] = target: Man(a1-2)Man(a1-2)Man(a1-6)[Man(a1-3)]Man
# In short: as §1
# Man(a1-2)Man(a1-3)Man = target: Man(a1-2)Man(a1-3)Man
# In short: as §1
binder,measurement,setting,value
"rAAL-I144G (Agrocybe aegerita), Q6WY08 (protein) MQGVNIYNISAGTSVDLAAPVTTGDIVTFFSSALNLNAGAGNPNNTTLNLFAENGAYLLHIAFRLQENVIIFNSRQPDGPWLVEQRVSDVANQFAGIDGKAMVTVFDHGDKYQVVINEKTVIQYTKQISGLTLSLSYNATEETSGFSTVVEAVTYTGLALEHHHHHH",glycan array binding signal (z-score),[1],-0.103
same,glycan array binding signal (z-score),GlcNAc(b1-3)Gal(b1-4)Glc,-0.03
same,glycan array binding signal (z-score),[2],-0.045
same,glycan array binding signal (z-score),[3],-0.093
same,glycan array binding signal (z-score),[4],-0.082
same,glycan array binding signal (z-score),[5],-0.075
same,glycan array binding signal (z-score),[6],-0.156
same,glycan array binding signal (z-score),[7],-0.059
same,glycan array binding signal (z-score),[8],-0.019
same,glycan array binding signal (z-score),[9],0.072
same,glycan array binding signal (z-score),[10],-0.137
same,glycan array binding signal (z-score),[11],-0.003
same,glycan array binding signal (z-score),[12],0.072
same,glycan array binding signal (z-score),[13],-0.098
same,glycan array binding signal (z-score),[14],-0.13
same,glycan array binding signal (z-score),[15],-0.035
same,glycan array binding signal (z-score),[16],-0.14
same,glycan array binding signal (z-score),[17],-0.092
same,glycan array binding signal (z-score),[18],-0.101
same,glycan array binding signal (z-score),[19],-0.113
same,glycan array binding signal (z-score),[20],-0.105
same,glycan array binding signal (z-score),[21],-0.157
same,glycan array binding signal (z-score),GlcNAc(b1-3)GalNAc,-0.106
same,glycan array binding signal (z-score),GlcNAc(b1-3)Man,-0.122
same,glycan array binding signal (z-score),[22],-0.077
same,glycan array binding signal (z-score),[23],-0.068
same,glycan array binding signal (z-score),[24],-0.17
same,glycan array binding signal (z-score),[25],-0.02
same,glycan array binding signal (z-score),GlcNAc(b1-4)GlcNAc,-0.172
same,glycan array binding signal (z-score),[26],-0.174
same,glycan array binding signal (z-score),[27],-0.154
same,glycan array binding signal (z-score),[28],-0.209
same,glycan array binding signal (z-score),[29],-0.144
same,glycan array binding signal (z-score),[30],-0.107
same,glycan array binding signal (z-score),GlcNAc(b1-6)GalNAc,-0.16
same,glycan array binding signal (z-score),[31],-0.006
same,glycan array binding signal (z-score),Kdn(a2-3)Gal(b1-3)GalNAc,-0.044
same,glycan array binding signal (z-score),Kdn(a2-3)Gal(b1-3)GlcNAc,-0.016
same,glycan array binding signal (z-score),Kdn(a2-3)Gal(b1-4)Glc,-0.084
same,glycan array binding signal (z-score),Kdn(a2-3)Gal(b1-4)GlcNAc,-0.163
same,glycan array binding signal (z-score),[32],-0.106
same,glycan array binding signal (z-score),Kdn(a2-6)Gal(b1-4)GlcNAc,-0.099
same,glycan array binding signal (z-score),[33],0
same,glycan array binding signal (z-score),[34],-0.102
same,glycan array binding signal (z-score),Man(a1-2)Man(a1-3)Man,-0.075
